# Results taken from the supplement of paper PMC8728848.
# This is one part of the list.
# B1: CvGal1 (Crassostrea virginica), A7Y0I5 (protein)
# chain: MTYQISKISQPFTSYIPNGLHIGKHLLLRGRVSYGTEAFAINLQQNPEPCNGEVAFHFNPRPGEQQCVRNSFDGGSWMDEERDQPHFPFDEGRSFTLRIEVAEEGFRTYVNGKPYVNFSHRLDLGNVHYLYLTEGAEFYDISYQDRYTLPYKSEIPQQMNVGKAVRIRGASQDNDGFSVNFACDPDNENCAFHFNPRPNEGVVVRNANLGGWGDEERDYEAEFPFHPYNYFDAMFICTDDKYLVHVNDKYFTEFNHRGGVDASSFFNIVGNLDIQDVEYFEPLEDDFVKTIPSGLVKGDVLIFRGFMKPGGDTFSINFMNGYSVEDDIAFHLNPRVGEGQVVMNCCMGGAWGDEEREDIPSPLADREPFEVKVVVKKNKFKVYVNGKKCMKFAARGNLEDIKGVNIKGEAYVYEVKLERKLEDSWEYLPGGFRVGGWVVVQAIPKKGSEGFAINFRTGSDEDSDIAFHFNPRLQENCTIRNSCAGGAWGGEERDQPDFPFEKKDTCEIAIQAQPDRFVTYVNGKRYIEFNHRLPLESITCVELTGRADFFEPKFF
# Assays:
# Assay in all cases: glycan array binding signal (z-score within array); higher = stronger binding
# Details in all cases: glycan notation: IUPAC condensed, linker removed
# [1] = biological target: Glc(a1-4)Glc
# In short: (§1)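 Glycan array data came from 3228 arrays in the Consortium for Functional Glycomics database, and only arrays with an available protein sequence were kept. Glycan names were put into IUPAC-condensed notation, and columns mapping to the same glycan were averaged. The binding signal is a within-array Z-score, averaged across arrays of one protein sequence run at different concentrations or buffers and across linkers. A negative Z-score can be read as non-binding.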
# [2] = biological target: Glc(a1-4)Glc(a1-4)Glc(a1-4)Glc
# In short: as §1
# [3] = biological target: Glc(a1-6)Glc(a1-6)Glc
# In short: as §1
# [4] = biological target: Glc(a1-6)Glc(a1-6)Glc(a1-6)Glc
# In short: as §1
# [5] = biological target: Glc(b1-4)Glc
# In short: as §1
# [6] = biological target: Glc(b1-6)Glc
# In short: as §1
# [7] = biological target: GlcA(b1-3)Gal
# In short: as §1
# [8] = biological target: GlcA(b1-3)GlcNAc
# In short: as §1
# [9] = biological target: GlcA(b1-6)Gal
# In short: as §1
# [10] = biological target: GlcNAc(a1-3)Gal(b1-4)GlcNAc
# In short: as §1
# [11] = biological target: GlcNAc(a1-4)Gal(b1-3)GlcNAc
# In short: as §1
# [12] = biological target: GlcNAc(a1-4)Gal(b1-4)GalNAc
# In short: as §1
# [13] = biological target: GlcNAc(a1-4)Gal(b1-4)GlcNAc
# In short: as §1
# [14] = biological target: GlcNAc(a1-4)Gal(b1-4)GlcNAc(b1-3)Gal(b1-4)Glc
# In short: as §1
# [15] = biological target: GlcNAc(a1-4)Gal(b1-4)GlcNAc(b1-3)Gal(b1-4)GlcNAc
# In short: as §1
# [16] = biological target: GlcNAc(a1-4)Gal(b1-4)GlcNAc(b1-3)Gal(b1-4)GlcNAc(b1-3)Gal(b1-4)GlcNAc
# In short: as §1
# [17] = biological target: GlcNAc(a1-4)Gal(b1-4)GlcNAc(b1-3)Gal(b1-4)[Fuc(a1-3)]GlcNAc(b1-3)Gal(b1-4)[Fuc(a1-3)]GlcNAc
# In short: as §1
# [18] = biological target: GlcNAc(a1-6)Gal(b1-4)GlcNAc
# In short: as §1
# [19] = biological target: GlcNAc(b1-2)Gal(b1-3)GalNAc
# In short: as §1
# [20] = biological target: GlcNAc(b1-2)Man(a1-3)[GlcNAc(b1-2)Man(a1-6)]Man(b1-4)GlcNAc(b1-4)GlcNAc
# In short: as §1
# [21] = biological target: GlcNAc(b1-2)Man(a1-3)[GlcNAc(b1-2)Man(a1-6)]Man(b1-4)GlcNAc(b1-4)[Fuc(a1-6)]GlcNAc
# In short: as §1
# [22] = biological target: GlcNAc(b1-2)Man(a1-3)[GlcNAc(b1-4)][GlcNAc(b1-2)Man(a1-6)]Man(b1-4)GlcNAc(b1-4)GlcNAc
# In short: as §1
# [23] = biological target: GlcNAc(b1-2)[GlcNAc(b1-4)]Man(a1-3)[GlcNAc(b1-2)Man(a1-6)]Man(b1-4)GlcNAc(b1-4)GlcNAc
# In short: as §1
# [24] = biological target: GlcNAc(b1-2)[GlcNAc(b1-4)]Man(a1-3)[GlcNAc(b1-4)][GlcNAc(b1-2)Man(a1-6)]Man(b1-4)GlcNAc(b1-4)GlcNAc
# In short: as §1
# [25] = biological target: GlcNAc(b1-2)[GlcNAc(b1-4)]Man(a1-3)[GlcNAc(b1-4)][GlcNAc(b1-2)[GlcNAc(b1-6)]Man(a1-6)]Man(b1-4)GlcNAc(b1-4)GlcNAc
# In short: as §1
# [26] = biological target: GlcNAc(b1-2)[GlcNAc(b1-4)]Man(a1-3)[GlcNAc(b1-4)][GlcNAc(b1-2)[GlcNAc(b1-6)]Man(a1-6)]Man(b1-4)GlcNAc(b1-4)[Fuc(a1-6)]GlcNAc
# In short: as §1
# [27] = biological target: GlcNAc(b1-2)[GlcNAc(b1-6)]Man(a1-6)[GlcNAc(b1-2)Man(a1-3)]Man(b1-4)GlcNAc(b1-4)GlcNAc
# In short: as §1
# [28] = biological target: GlcNAc(b1-2)[GlcNAc(b1-6)]Man(a1-6)[GlcNAc(b1-2)Man(a1-3)]Man(b1-4)GlcNAc(b1-4)[Fuc(a1-6)]GlcNAc
# In short: as §1
# [29] = biological target: GlcNAc(b1-2)[GlcNAc(b1-6)]Man(a1-6)[GlcNAc(b1-2)Man(a1-3)][GlcNAc(b1-4)]Man(b1-4)GlcNAc(b1-4)GlcNAc
# In short: as §1
# [30] = biological target: GlcNAc(b1-3)Gal
# In short: as §1
# [31] = biological target: GlcNAc(b1-3)Gal(b1-3)GalNAc
# In short: as §1
# [32] = biological target: GlcNAc(b1-3)Gal(b1-4)Glc
# In short: as §1
# [33] = biological target: GlcNAc(b1-3)Gal(b1-4)GlcNAc
# In short: as §1
# [34] = biological target: GlcNAc(b1-3)Gal(b1-4)GlcNAc(b1-3)Gal(b1-4)GlcNAc
# In short: as §1
# [35] = biological target: GlcNAc(b1-3)GalNAc
# In short: as §1
# [36] = biological target: GlcNAc(b1-3)Man
# In short: as §1
# [37] = biological target: GlcNAc(b1-3)[GlcNAc(b1-4)][GlcNAc(b1-6)]GlcNAc
# In short: as §1
# [38] = biological target: GlcNAc(b1-3)[GlcNAc(b1-6)]Gal(b1-4)GlcNAc
# In short: as §1
# [39] = biological target: GlcNAc(b1-3)[GlcNAc(b1-6)]GalNAc
# In short: as §1
# [40] = biological target: GlcNAc(b1-4)Gal(b1-4)GlcNAc
# In short: as §1
# [41] = biological target: GlcNAc(b1-4)GlcNAc
# In short: as §1
# [42] = biological target: GlcNAc(b1-4)GlcNAc(b1-4)GlcNAc
# In short: as §1
# [43] = biological target: GlcNAc(b1-4)GlcNAc(b1-4)GlcNAc(b1-4)GlcNAc(b1-4)GlcNAc
# In short: as §1
# [44] = biological target: GlcNAc(b1-4)GlcNAc(b1-4)GlcNAc(b1-4)GlcNAc(b1-4)GlcNAc(b1-4)GlcNAc
# In short: as §1
# [45] = biological target: GlcNAc(b1-4)[GlcNAc(b1-6)]GalNAc
# In short: as §1
# [46] = biological target: GlcNAc(b1-6)Gal(b1-4)GlcNAc
# In short: as §1
# [47] = biological target: GlcNAc(b1-6)GalNAc
# In short: as §1
# [48] = biological target: GlcNAc3Prop(b1-4)GlcNAc
# In short: as §1
# [49] = biological target: GlcNAc6S(b1-3)Gal(b1-4)GlcNAc
# In short: as §1
# [50] = biological target: Kdn(a2-3)Gal(b1-3)GalNAc
# In short: as §1
# [51] = biological target: Kdn(a2-3)Gal(b1-3)GlcNAc
# In short: as §1
# [52] = biological target: Kdn(a2-3)Gal(b1-4)Glc
# In short: as §1
# [53] = biological target: Kdn(a2-3)Gal(b1-4)GlcNAc
# In short: as §1
# [54] = biological target: Kdn(a2-3)Gal(b1-4)[Fuc(a1-3)]GlcNAc
# In short: as §1
# [55] = biological target: Kdn(a2-6)Gal(b1-4)GlcNAc
# In short: as §1
# [56] = biological target: Man(a1-2)Man(a1-2)Man(a1-3)Man
# In short: as §1
# [57] = biological target: Man(a1-2)Man(a1-2)Man(a1-6)[Man(a1-3)]Man
# In short: as §1
# [58] = biological target: Man(a1-2)Man(a1-3)Man
# In short: as §1
# [59] = biological target: Man(a1-2)Man(a1-3)[Man(a1-2)Man(a1-6)]Man
# In short: as §1
# [60] = biological target: Man(a1-2)Man(a1-3)[Man(a1-2)Man(a1-6)]Man(a1-6)[Man(a1-2)Man(a1-2)Man(a1-3)]Man
# In short: as §1
binder,measurement,setting,value
B1,glycan array binding signal (z-score),[1],-0.27
same,glycan array binding signal (z-score),[2],-0.272
same,glycan array binding signal (z-score),[3],-0.275
same,glycan array binding signal (z-score),[4],-0.276
same,glycan array binding signal (z-score),[5],-0.303
same,glycan array binding signal (z-score),[6],-0.257
same,glycan array binding signal (z-score),[7],-0.321
same,glycan array binding signal (z-score),[8],-0.243
same,glycan array binding signal (z-score),[9],-0.259
same,glycan array binding signal (z-score),[10],1.9
same,glycan array binding signal (z-score),[11],-0.313
same,glycan array binding signal (z-score),[12],-0.271
same,glycan array binding signal (z-score),[13],-0.266
same,glycan array binding signal (z-score),[14],-0.221
same,glycan array binding signal (z-score),[15],-0.301
same,glycan array binding signal (z-score),[16],-0.29
same,glycan array binding signal (z-score),[17],-0.119
same,glycan array binding signal (z-score),[18],-0.264
same,glycan array binding signal (z-score),[19],-0.288
same,glycan array binding signal (z-score),[20],-0.297
same,glycan array binding signal (z-score),[21],-0.3
same,glycan array binding signal (z-score),[22],-0.278
same,glycan array binding signal (z-score),[23],-0.282
same,glycan array binding signal (z-score),[24],-0.261
same,glycan array binding signal (z-score),[25],-0.288
same,glycan array binding signal (z-score),[26],-0.249
same,glycan array binding signal (z-score),[27],-0.231
same,glycan array binding signal (z-score),[28],-0.252
same,glycan array binding signal (z-score),[29],-0.268
same,glycan array binding signal (z-score),[30],-0.285
same,glycan array binding signal (z-score),[31],-0.283
same,glycan array binding signal (z-score),[32],-0.241
same,glycan array binding signal (z-score),[33],-0.268
same,glycan array binding signal (z-score),[34],-0.23
same,glycan array binding signal (z-score),[35],-0.26
same,glycan array binding signal (z-score),[36],-0.293
same,glycan array binding signal (z-score),[37],-0.252
same,glycan array binding signal (z-score),[38],-0.244
same,glycan array binding signal (z-score),[39],-0.277
same,glycan array binding signal (z-score),[40],-0.274
same,glycan array binding signal (z-score),[41],-0.28
same,glycan array binding signal (z-score),[42],-0.295
same,glycan array binding signal (z-score),[43],-0.215
same,glycan array binding signal (z-score),[44],-0.248
same,glycan array binding signal (z-score),[45],-0.23
same,glycan array binding signal (z-score),[46],-0.285
same,glycan array binding signal (z-score),[47],-0.293
same,glycan array binding signal (z-score),[48],-0.255
same,glycan array binding signal (z-score),[49],-0.25
same,glycan array binding signal (z-score),[50],-0.264
same,glycan array binding signal (z-score),[51],-0.228
same,glycan array binding signal (z-score),[52],-0.279
same,glycan array binding signal (z-score),[53],-0.262
same,glycan array binding signal (z-score),[54],-0.255
same,glycan array binding signal (z-score),[55],-0.242
same,glycan array binding signal (z-score),[56],-0.249
same,glycan array binding signal (z-score),[57],-0.221
same,glycan array binding signal (z-score),[58],-0.265
same,glycan array binding signal (z-score),[59],-0.258
same,glycan array binding signal (z-score),[60],-0.242
